Here are results for 22 molecules from PMC12136788.

First the molecules themselves.
B1: chr4:41958937:41959038:+|3pUTR|ENSG00000109133|msi1|total|mutant (ssRNA)
RNA: GGGAGUUCUACAGUCCGACGAUCUCUUGAACUCCUGGCCUCAAGUGAUCUGCCCGCCUCGACCUCCCAGAGUGCUGGGAUUACCGGUGUGAGCCACUAAGCCUGGCUGAGACAACCCGUUUCCCUUAACUCAUUGGAAUUCUCCAACAGAGGAUUGAGCAUCA
B2: chr3:69085097:69085224:+|CDS|ENSG00000144746|unk|total|mutant (ssRNA)
RNA: GGGAGUUCUACAGUCCGACGAUCGGGUUCCGAUCGCUUUGCCCGGCCGGACUUCAGGGACAUUUCCAAAUGGAACAACCGCGCCGUGAGCAACCUGCUCUAUUACCAGACCAACUACCUGGUGGUGGCUGCCAUGAUGAUUUCCAACAGAGGAUUGAGCAUCA
B3: ENSG00000198589:be:win_2151|CDS|ENSG00000198589|bound_else_gene|NA|bound_elsewhere_windowed (ssRNA)
RNA: GGGAGUUCUACAGUCCGACGAUCAAGGAAUGGGUUACGUGUUAUCUACAAACUUCUGGCAUCGAAAAGUGAAGGAAUCAGGGUACAAGCUCUUAAGGCAAUGGGUUAUUUUUUAAAACAUCUGGCCCCAAAGAGGAAAGCAGACAACAGAGGAUUGAGCAUCA
B4: ENSG00000107863:be:win_6201|3pUTR|ENSG00000107863|bound_else_gene|NA|bound_elsewhere_windowed (ssRNA)
RNA: GGGAGUUCUACAGUCCGACGAUCACUAACAAAAGUGCCUCAUCAUAAAAAUACAGUUGGUUUUUAGGGUGCCAUAUUGUUAAAAUUAGAUAACUUACUUACAUUGAAUAAACGAAUGCGUUUUAUUGGUAACAGAUAUCAUUACAACAGAGGAUUGAGCAUCA
B5: chr17:49053040:49053141:+|3pUTR|ENSG00000159217|unk|FALSE|unique (ssRNA)
RNA: GGGAGUUCUACAGUCCGACGAUCCUCAGCUCCUGUGAGGGGUCUGGUUAGGAGAGAGCCAUUUUUAAGGACAGGGAGUUUUAUAGCCCUUUUCUACUUUCCUCCCCUCCUCCCAGUCCUUAUCAAUCUUUUUUCCUUUUUCCUCAACAGAGGAUUGAGCAUCA
B6: ENSG00000186448:stop:overlap|stop_codon|ENSG00000186448|stop_codon|NA|stop_codon (ssRNA)
RNA: GGGAGUUCUACAGUCCGACGAUCUUGAGGAAUUCUCUUGGCUACAAAACACCAAUGAGUCCAAGAUUGAGAUUCAGAAAAUCUAGUGUCAUAUGUAAAAUGGAAUAGAAUCCCUGCCUACUUAAGUAACUGUUGGACAAAUGACAACAGAGGAUUGAGCAUCA
B7: ENSG00000198589:be:win_51|CDS|ENSG00000198589|bound_else_gene|NA|bound_elsewhere_windowed (ssRNA)
RNA: GGGAGUUCUACAGUCCGACGAUCCGGGGGAGGUGGAGGGAGAGAAGAAACCCCUACUGAAGGGGGUGCAUUGUCUCUGAAACCAGGGCUCCCCAUCAGGGGCAUCAGAAUGAAAUUUGCCGUGUUGACCGGUUUGGUUGAAGUCAACAGAGGAUUGAGCAUCA
B8: chr6:56640275:56640385:-|CDS|ENSG00000151914|unk|FALSE|bound_elsewhere (ssRNA)
RNA: GGGAGUUCUACAGUCCGACGAUCGACUUCCCGCCUGACUCCAUCUGUCACUCCAGCUUAUACACCUGGUUUCCCAUCAGGAUUAGUUCCAAAUUUCAGUUCAGGAGUAGAGCCAAAUUCAUUGCAAACUUUGAAGUUGAUGCACAACAGAGGAUUGAGCAUCA
B9: chr7:95359871:95360131:-|three_prime_utr|ENSG00000105852|control|control|control (ssRNA)
RNA: GGGAGUUCUACAGUCCGACGAUCCAAUGGCUCUGUGCUUCAGGGCACCUCUGUGGCUUCUGUGUACCAUGGGAAAAUUCUCAUAGGCACCGUAUUUCACAAAACUCUGUACUGUGAGCUCUAGACUCUAGAUAGUAAAAAAAACAACAGAGGAUUGAGCAUCA
B10: chr11:5233990:5234213:-|CDS|ENSG00000223609|control|control|control (ssRNA)
RNA: GGGAGUUCUACAGUCCGACGAUCGAUGCUGUUAUGGGCAACCCUAAGGUGAAGGCUCAUGGCAAGAAGGUGCUAGGUGCCUUUAGUGAUGGCCUGGCUCACCUGGACAACCUCAAGGGCACUUUUUCUCAGCUGAGUGAGCUGCAACAGAGGAUUGAGCAUCA
B11: chr9:34086386:34088349:-|three_prime_utr|ENSG00000198876|control|control|control (ssRNA)
RNA: GGGAGUUCUACAGUCCGACGAUCCUCAGUUUCCUUGUUUCUUUUGAUUUUUUUUUUCCUAAUUGUGUGAGGCUCUUGUGUUUUAGUGGGAACACCAAAGUUUGCCUAUAGUUUAGGCACUUAAUAGGAAGAAGCUCUGUACAGCAACAGAGGAUUGAGCAUCA
B12: chr2:162011792:162011987:-|CDS|ENSG00000197635|control|control|control (ssRNA)
RNA: GGGAGUUCUACAGUCCGACGAUCACUGUCUUCAGACUGAACUGGGCCACUUACCUUGCAAGCACAGAAAACAUUAUAGUAGCUAGCUUUGAUGGCAGAGGAAGUGGUUACCAAGGAGAUAAGAUCAUGCAUGCAAUCAACAGACAACAGAGGAUUGAGCAUCA
B13: chr15:85746268:85746369:+|3pUTR|ENSG00000170776|msi1|FALSE|bound_elsewhere (ssRNA)
RNA: GGGAGUUCUACAGUCCGACGAUCUGUUUUAUUUAUUGUAUUUGUGUGUUUGUGUUUGUUUUUUUUUAAGGGUGAGCCAGGUCUAGCCCAACAGUCUAAACUAUCCAGUCAAUACCGAGUGAAGUGGCAGCCAGCACUGUUCACCAACAGAGGAUUGAGCAUCA
B14: ENSG00000070961:be:win_5501|3pUTR|ENSG00000070961|bound_else_gene|NA|bound_elsewhere_windowed (ssRNA)
RNA: GGGAGUUCUACAGUCCGACGAUCCAGUAAUCCUCUGCAGGUCUUAGAAACACAUUGGCUCUGUCAGCAUUUGUAAUUGUACAUUUAUUCAUCAGGUAUUUAUAGUGAAUCAUACUGUAAAAAAGAGGUAGCAUGAUAUGCUGGCAACAGAGGAUUGAGCAUCA
B15: chr11:113276125:113276317:+|3pUTR|ENSG00000149294|msi1|FALSE|unique (ssRNA)
RNA: GGGAGUUCUACAGUCCGACGAUCGUCCGUGUAAAAUAGCUGCCUUUUAUUUUUUAAGGUAACAAAUACCACCUAGAGGUAGGUAGGAUCAUCCCACGCUUGCUUUAGCACAGGACAACUUUACAAAACAUGAUUGUUUACAGCCAACAGAGGAUUGAGCAUCA
B16: chr2:27376893:27376994:+|3pUTR|ENSG00000115234|msi1|FALSE|unique (ssRNA)
RNA: GGGAGUUCUACAGUCCGACGAUCGGGCUGGCUGCACAGAGGAUUGCCCCUUCUCUUUUCAGAGCUGGCCCUCGAUGCCAAAUUAGCAUUUAGUAUUUUGCACAAAGUCUAAGGGACCAUGGCUGCCUGCCUUGGGGAGGAACCCAACAGAGGAUUGAGCAUCA
B17: ENSG00000010278:stop:overlap|stop_codon|ENSG00000010278|stop_codon|NA|stop_codon (ssRNA)
RNA: GGGAGUUCUACAGUCCGACGAUCUUGGCAUGAUCUUCAGUAUGAUCUUGUGCUGUGCUAUCCGCAGGAACCGCGAGAUGGUCUAGAGUCAGCUUACAUCCCUGAGCAGGAAAGUUUACCCAUGAAGAUUGGUGGGAUUUUUUGCAACAGAGGAUUGAGCAUCA
B18: chr6:52501983:52502084:-|3pUTR|ENSG00000065308|msi1|total|mutant (ssRNA)
RNA: GGGAGUUCUACAGUCCGACGAUCGGCCGCCCUUGUUGAGUGUUCUUUGGAAUUGUCGUUUUUUGAGCACAACUACAGCAUUUCCGACUGCAUGAAACCAUGACUGACUGAGAGUCACUCUCUGGGCCGAUGACCGGCGCCUUUCAACAGAGGAUUGAGCAUCA
B19: chr6:89084018:89084151:+|CDS|ENSG00000146278|unk|FALSE|unique (ssRNA)
RNA: GGGAGUUCUACAGUCCGACGAUCACUGAAGUGAGCCAAAAGGAAAAUUAUGCUGGGGCAAAGUUUAGUGAUCCACCUUCUCCUAGUGUUCUUCCAAAGCCUCCUAGUCACUGGAUGGGAAGCACUGUUGAAAAUUCCAACCAACAACAGAGGAUUGAGCAUCA
B20: chr11:103061782:103061883:-|3pUTR|ENSG00000137692|unk|FALSE|unique (ssRNA)
RNA: GGGAGUUCUACAGUCCGACGAUCAAGACUGUUGGCCUUGACUUCUGGGAUAAUGAUUUGCUGAUGCAGCUAAUAAACAUUUCUAGGUAUUGGAAAAAUGCUCCUACUUUUAGCUCUGGGUUUCUAUAAAAGCUGCCAAGGUCUCAACAGAGGAUUGAGCAUCA
B21: chr12:49796586:49796721:-|CDS|ENSG00000167566|msi1|FALSE|unique (ssRNA)
RNA: GGGAGUUCUACAGUCCGACGAUCGAGGCCCACAGGCCAGGCUUCGGUGCUACCUCAGAGGGCCAGGGGCCCCUCCCCUUCCUUAGCAUGUUCAUGGGUGCUGGGGAUGCCCCACUGGGCUCUCGGCCUGGCCACCCCCAUUCCCAACAGAGGAUUGAGCAUCA
B22: ENSG00000136451:be:win_3051|3pUTR|ENSG00000136451|bound_else_gene|NA|bound_elsewhere_windowed (ssRNA)
RNA: GGGAGUUCUACAGUCCGACGAUCUGUGUUAAUCUUGCAGAAUGUUUGCAGGACUGACUAUCAAACUGGAUGAUUUCCAUUUAUACCCUACUGUGUCAGUUCAAGCAUCAAAAUACCUUGCAUCUGAGACAGACUUCCUACAUCCAACAGAGGAUUGAGCAUCA

The other results are listed elsewhere or left out.

This test addresses MSI1 full-length (mouse, UniProt Q61474 1-362). The experiment in a line: nsRBNS (natural sequence RNA bind-n-seq); RBNS binding buffer (assumed for nsRBNS): 25 mM Tris pH 7.5, 150 mM KCl, 3 mM MgCl2, 0.01% Triton X-100, 500 ug/ml BSA, 20 U/ml SUPERase-In, 4 C; UNK is unkempt and MSI1 is Musashi-1; names of the RNAs are library labels; protein concentration not given here; high values mean tight binding.
UniProt Q61474, sequence (Q61474 whole entry): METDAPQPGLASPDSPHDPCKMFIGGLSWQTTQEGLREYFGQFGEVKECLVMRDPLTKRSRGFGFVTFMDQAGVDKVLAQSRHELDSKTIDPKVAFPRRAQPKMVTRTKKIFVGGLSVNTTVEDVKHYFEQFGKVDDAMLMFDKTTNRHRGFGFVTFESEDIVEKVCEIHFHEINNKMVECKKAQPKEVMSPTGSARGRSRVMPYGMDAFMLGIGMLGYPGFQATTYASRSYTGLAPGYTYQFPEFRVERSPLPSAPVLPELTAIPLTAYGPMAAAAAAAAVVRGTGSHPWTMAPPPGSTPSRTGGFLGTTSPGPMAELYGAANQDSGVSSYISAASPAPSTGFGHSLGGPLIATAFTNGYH
On to B1, for which the binding signal was determined as 0.384 enrichment R.

Regarding B2, the binding signal was determined as 0.282 enrichment R.

B3 gave a binding signal of 0.467 enrichment R.

As to B4, the binding signal is 1.25 enrichment R.

In the case of B5, the binding signal was determined as 1.26 enrichment R.

Molecule B6 had a binding signal of 1.03 enrichment R.

The molecule B7 came in with a binding signal of 0.39 enrichment R.

Molecule B8 showed a binding signal of 0.605 enrichment R.

In turn, B9 yielded a binding signal of 1.64 enrichment R.

B10 registered a binding signal of 0.37 enrichment R.

Consider B11, for which the binding signal amounted to 4.2 enrichment R.

For B12, the binding signal stood at 5.26 enrichment R.

Molecule B13 had a binding signal of 5.8 enrichment R.

B14 returned a binding signal of 2.21 enrichment R.

On to B15, for which the binding signal is 0.716 enrichment R.

As to B16, the binding signal worked out at 1.07 enrichment R.

In turn, B17 had a binding signal of 0.361 enrichment R.

Turning to B18, the binding signal stood at 0.296 enrichment R.

As to B19, the binding signal is 0.343 enrichment R.

The molecule B20 gave a binding signal of 0.412 enrichment R.

Molecule B21 displayed a binding signal of 0.353 enrichment R.

For B22, the binding signal stood at 0.207 enrichment R.
